The values that follow come from PMC4336329 (PLoS ONE, 2015).

The campaign covered roughly 310,000 compounds. About 2,200 (0.71%) showed an effect of 50% or more. The effect is printed as a negative number. The list shows a part of the results.

human ether-à-go-go-related gene (hERG) potassium channel, sequence (Q12809 whole entry, looked up): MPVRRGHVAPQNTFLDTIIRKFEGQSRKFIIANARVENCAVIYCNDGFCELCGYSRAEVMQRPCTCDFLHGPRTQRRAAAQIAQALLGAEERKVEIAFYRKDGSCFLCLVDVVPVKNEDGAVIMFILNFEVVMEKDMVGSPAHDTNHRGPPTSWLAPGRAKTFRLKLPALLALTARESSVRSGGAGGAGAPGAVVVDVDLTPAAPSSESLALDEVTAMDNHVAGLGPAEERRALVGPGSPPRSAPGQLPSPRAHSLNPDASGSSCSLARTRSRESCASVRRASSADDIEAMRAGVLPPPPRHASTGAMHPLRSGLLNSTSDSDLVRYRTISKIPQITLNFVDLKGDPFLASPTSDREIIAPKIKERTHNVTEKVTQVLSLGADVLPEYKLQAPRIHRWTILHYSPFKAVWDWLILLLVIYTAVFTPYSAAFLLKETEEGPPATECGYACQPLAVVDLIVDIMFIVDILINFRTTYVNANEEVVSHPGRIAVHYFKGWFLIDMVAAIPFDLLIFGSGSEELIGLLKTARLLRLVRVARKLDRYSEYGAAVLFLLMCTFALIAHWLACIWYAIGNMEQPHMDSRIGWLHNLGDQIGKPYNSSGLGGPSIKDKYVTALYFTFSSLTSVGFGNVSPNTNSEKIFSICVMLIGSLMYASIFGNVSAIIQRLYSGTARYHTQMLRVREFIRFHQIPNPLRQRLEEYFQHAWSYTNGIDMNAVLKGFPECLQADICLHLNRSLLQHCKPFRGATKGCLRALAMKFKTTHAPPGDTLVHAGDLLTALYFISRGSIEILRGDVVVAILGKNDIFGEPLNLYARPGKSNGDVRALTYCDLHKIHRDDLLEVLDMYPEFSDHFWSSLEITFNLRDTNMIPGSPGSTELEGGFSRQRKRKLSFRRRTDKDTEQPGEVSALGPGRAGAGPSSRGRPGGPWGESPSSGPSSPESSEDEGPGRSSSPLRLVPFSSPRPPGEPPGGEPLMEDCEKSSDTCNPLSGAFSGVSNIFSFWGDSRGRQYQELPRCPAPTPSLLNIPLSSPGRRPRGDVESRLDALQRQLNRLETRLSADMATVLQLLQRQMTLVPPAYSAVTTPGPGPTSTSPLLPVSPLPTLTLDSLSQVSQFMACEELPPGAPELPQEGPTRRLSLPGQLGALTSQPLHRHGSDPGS

The assay has as its target human ether-à-go-go-related gene (hERG) potassium channel (human, UniProt Q12809). In words: primary screen, population patch clamp on CHO cells stably expressing hERG.
In the case of `CCn1c(SCC(=O)Nc2ccc(C)cc2)nnc1-c1cnccn1`, the “hERG current change (%, negative = inhibition) at 1uM” value is 8.53%.

Turning to `Cc1ccc(N2CC(C(=O)Nc3ccccn3)CC2=O)cc1` (stereo not drawn), the “hERG current change (%, negative = inhibition) at 1uM” value is given as -0.954%. Then `CCOC(=O)N1CCN(C(=S)NC(=O)c2nn(C)cc2Br)CC1`, with 24.1%; and `O=C(Nc1ccc(F)cc1)c1cccc2c1C(=O)N(CC1CCCO1)C2` (stereo not drawn), with 0.85%; and `Cc1ccc(/C=N/NC(=O)COc2ccccc2-c2ccccc2)cc1`, with 8.45%. Then `CCOCCOC(=O)C1=C(C)NC2=C(C(=O)CC(c3cccs3)C2)C1c1ccsc1` (stereo not drawn), with 12.1%; and `Cc1cc(O)c2/c(=N\N)c(-c3csc(C)n3)coc2c1`, with 6.04%; and `Cn1cccc1-c1nc2ccc(NC(=O)c3cccs3)cc2[nH]1`, with -16.9%. With `CCOC(=O)C1CCN(S(=O)(=O)c2csc(C(N)=O)c2)CC1` the figure was 2.13%. For `CN(Cc1ccccc1F)C(=O)c1sccc1-c1ccccc1`, the “hERG current change (%, negative = inhibition) at 1uM” value worked out at 9.65%.

Take `CCCN(CC1CC1)C(=S)Nc1ccccc1F`: the “hERG current change (%, negative = inhibition) at 1uM” value turned out to be 5.68%. Consider `CCn1cnc2c1c(=O)n(Cc1ccc(C(=O)OC)cc1)c(=O)n2Cc1ccccc1`, for which the “hERG current change (%, negative = inhibition) at 1uM” value is reported as 19.6%. With `COc1ccccc1NS(=O)(=O)c1ccc2oc(N)nc2c1` the figure was 15.9%. With `CN(C)C(=O)c1cc(C(=O)c2ccccc2Cl)c[nH]1` the figure was 19.2%; with `CN1CCN(C(=O)CCCOc2ccc(Cl)cc2Cl)CC1`, -34%. Then `Cc1ccc(NC(=O)c2nc(S(=O)(=O)Cc3ccccc3)ncc2Cl)cc1`, with 21.4%. As for `CCN(C(=O)COC(=O)c1cccn1C)C1CCS(=O)(=O)C1` (stereo not drawn), the “hERG current change (%, negative = inhibition) at 1uM” value is given as 11.5%. With `CCCCn1c(NS(=O)(=O)c2ccc(C)cc2)c(C(=O)OCC)c2nc3ccccc3nc21` the figure was 1.73%. Turning to `Cc1cc(C(=O)N(C)C)sc1-c1ccccc1`, the “hERG current change (%, negative = inhibition) at 1uM” value was found to be 9.36%. With `COc1ccccc1Cc1nnc(NC(=O)C2CCN(C(=O)c3ccco3)CC2)s1` the figure was 8.89%; with `COc1cc(C2=NOC(C(=O)NCc3ccccn3)C2)cc(OC)c1OC` (stereo not drawn), 14.9%. With `O=c1ccnc(SCn2nnc3ccccc3c2=O)[nH]1` the figure was 8.43%. With `Cn1ccsc1=NC(=O)c1ccc(S(=O)(=O)C(F)F)cc1` the figure was 14.4%; with `CCCCNc1nc2ccccc2nc1NS(=O)(=O)c1ccc(F)cc1`, 6.65%; with `COc1cc(Br)cc(/C=N/NC(=O)Cc2ccc(C(F)(F)F)cc2[N+](=O)[O-])c1O`, 7.29%. `COc1ccccc1NCN1C(=O)CCC1=O`: the “hERG current change (%, negative = inhibition) at 1uM” value is recorded as 2.48%. With `COc1ccc2cc(/C=C/C(=O)c3ccco3)c(Cl)nc2c1` the figure was 16.7%; with `O=C(Cn1cc2c(n1)CCCC2)NCCCN1CCN(c2ccccc2F)CC1`, -5.66%. With `CCc1ccc(S(=O)(=O)Nc2ccncc2)cc1` the figure was 7.89%; with `CCCc1cc(C(N)=O)c(NC(=O)c2ccco2)s1`, 16.2%; with `NC(=S)NC1CC2C=CC1C2` (stereo not drawn), 12.7%. Then `COc1ccccc1C(O)(C(=O)NN(C(=O)c1ccccc1)c1ccccc1C)c1cccs1` (stereo not drawn), with -8.26%; and `CN1C(=O)[C@@H]2[C@@H]3C[C@@H]([C@H]4ON=C(c5ccc(Cl)cc5)[C@@H]34)[C@@H]2C1=O`, with -2.57%; and `NS(=O)(=O)c1cccc(NC(=O)COC(=O)c2ccccc2C(=O)c2ccccc2)c1`, with -2.46%. As for `CC(C)(C)c1ccc(CN2C(=O)c3ccccc3S2(=O)=O)cc1`, the “hERG current change (%, negative = inhibition) at 1uM” value is listed as 15.7%. With `O=C(NCC1CCCO1)c1ccccc1OCc1ccc(Cl)cc1` (stereo not drawn) the figure was 11.5%; with `Cc1c(NC(=O)C(C)OC(=O)c2cc3c4ccccc4n(C)c3s2)c(=O)n(-c2ccccc2)n1C` (stereo not drawn), -2.85%. With `O=C(NC1CCC(O)CC1)c1ccc2c(c1)S(=O)(=O)N=C1CCCCCN12` (stereo not drawn) the figure was 12.5%; with `CCOc1ccc(-n2c(SCC(=O)OC)nc3sc4c(c3c2=O)CCN(C)C4)cc1`, 13.1%; with `CC(C)NC(=O)c1ccccc1N(Cc1ccccc1)S(C)(=O)=O`, 15.3%. `Cn1nc(C(F)(F)F)cc1-c1ccc(/C=C(\C#N)C(=O)c2ccccc2)s1`: the “hERG current change (%, negative = inhibition) at 1uM” value worked out at 14.3%.

Take `Cc1sc2ncn(CC(=O)NC3CCCCC3)c(=O)c2c1C`: the “hERG current change (%, negative = inhibition) at 1uM” value is 5.06%.

As for `O=C(O)CC1=C(O)C(=O)N(c2ccccc2)C1c1ccc(Cl)cc1` (stereo not drawn), the “hERG current change (%, negative = inhibition) at 1uM” value stood at 17.6%. With `CN(Cc1ccccc1)CC(O)COc1ccc(CNCCCOc2cccnc2)cc1` (stereo not drawn) the figure was 11.4%. With `Cc1ccccc1CNC1CCCCC1.Cl`, the “hERG current change (%, negative = inhibition) at 1uM” value was found to be 2.15%. With `Cc1ccc(S(=O)(=O)Nc2ccc3nc(C)sc3c2)c(C)c1` the figure was 9.4%. With `O=C(Cn1ccc2cc(S(=O)(=O)N3CCCC3)ccc21)NCc1ccccc1` the figure was 19.6%. With `CN1CCN(c2nc(N)c(Br)c(Cl)n2)CC1` the figure was 11.2%; with `COc1ccc(CCNC(=O)C2CCN(S(=O)(=O)c3cc(OC)ccc3OC)CC2)cc1`, 5.93%; with `COCCNC(=O)C(c1cccs1)N(C(=O)Cn1nnc2ccccc21)c1ccccc1` (stereo not drawn), 2.32%. As for `Cc1cccc(NC(=S)NCC(c2cccnc2)N(C)C)c1` (stereo not drawn), the “hERG current change (%, negative = inhibition) at 1uM” value was 10.4%. With `CC(=O)Nc1ccccc1-c1nc2ccc(C(=O)N3CCN(c4cccc(C)c4)C(C)C3)cc2[nH]c1=O` (stereo not drawn) the figure was 12.3%.

For the molecule `COc1ccccc1OCC(=O)Nc1ccc(S(=O)(=O)Nc2onc(C)c2C)cc1`, the “hERG current change (%, negative = inhibition) at 1uM” value is on record as 13.8%. Consider `COc1cccc(NC(=O)C2CCN(C(=O)[C@@H]3Cc4ccccc4CN3)CC2)c1`, for which the “hERG current change (%, negative = inhibition) at 1uM” value was found to be 0.0621%.

On to `CCOC(=O)c1nnn2c1nc(N1CCCCC1)c1ccccc12`, for which the “hERG current change (%, negative = inhibition) at 1uM” value is 9.11%. With `Cc1sc2nc(CSC(C)C(=O)Nc3ccc(C#N)cc3)[nH]c(=O)c2c1C` (stereo not drawn) the figure was 8.63%; with `CC(C)Nc1nc(NNc2nc(Cl)nc(NC(C)(C)C)n2)nc(NC(C)C)n1`, 20.2%.
